Assay results reported in the supplement of paper PMC4604168 (melanoma cell lines).
Some of the results follow. Repeats are few or missing, and single values can be far off.

Tests used:
Assay in all cases: cell count relative to DMSO control; melanoma cells; higher = more viable cells
Conditions in all cases: library dose: standard library concentration; 72 h
G361 = tested on: G361
IPC-298 = tested on: IPC-298
IST-MEL1 = tested on: IST-MEL1
LB2518-MEL = tested on: LB2518-MEL
LOXIMVI = tested on: LOXIMVI
MEL-HO = tested on: MEL-HO
MZ2-MEL = tested on: MZ2-MEL
MeWo = tested on: MeWo
RPMI7951 = tested on: RPMI7951
RVH-421 = tested on: RVH-421
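Also: cells treated in 1,536-well plates, then fixed and DAPI-stained, with nuclei counted from automated high-throughput microscope images.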

Compound | cell count (G361) [%] | cell count (IPC-298) [%] | cell count (IST-MEL1) [%] | cell count (LB2518-MEL) [%] | cell count (LOXIMVI) [%] | cell count (MEL-HO) [%] | cell count (MZ2-MEL) [%] | cell count (MeWo) [%] | cell count (RPMI7951) [%] | cell count (RVH-421) [%]
NC(=O)Nc1cc(-c2cccc(F)c2)sc1C(=O)N[C@H]1CCCNC1 + CCN(CC)CCCCNc1ncc2cc(-c3cc(OC)cc(OC)c3)c(NC(=O)NC(C)(C)C)nc2n1 [PD173074] (first compound 0.1 µM, partner dose 0.5 µM) | 90.8 | 77.7 | 97.2 | 42.8 | 63.7 | 62.3 | 90.1 | 60.1 | 22.4 | 120
NCC(=O)Nc1ccc(-n2nc(C(F)(F)F)cc2-c2ccc3c(ccc4ccccc43)c2)cc1 + CCCCCCCCCCCC1=C(O)C(=O)C=C(O)C1=O [Embelin] (first compound 5 µM, partner dose 6 µM) | 57.8 | 48 | 69.1 | 64.2 | 123 | 80.8 | 82 | 88.4 | 79.3 | 64.9
NCC(=O)Nc1ccc(-n2nc(C(F)(F)F)cc2-c2ccc3c(ccc4ccccc43)c2)cc1 + Oc1nc(-c2ccc(C(F)(F)F)cc2)nc2c1CSCC2 [XAV939] (first compound 5 µM, partner dose 10 µM) | 73 | 52.7 | 81.5 | 86.9 | 88.5 | 78.3 | 94.7 | 86.4 | 76.9 | 55.9
C[C@]1(c2nc3c(C(N)=O)cccc3[nH]2)CCCN1 [Veliparib] + C[C@@H]1CCN(C(=O)CC#N)C[C@@H]1N(C)c1ncnc2[nH]ccc12 [CP690550] (first compound 7 µM, partner dose 5 µM) | 99.6 | 114 | 82.2 | 96 | 103 | 89 | 101 | 83.7 | 82.3 | 84.4
NC(=O)Nc1cc(-c2cccc(F)c2)sc1C(=O)N[C@H]1CCCNC1 + Oc1nc(-c2ccc(C(F)(F)F)cc2)nc2c1CSCC2 [XAV939] (first compound 0.1 µM, partner dose 10 µM) | 82.9 | 81.7 | 94.5 | 64.8 | 107 | 72.3 | 99 | 106 | 33.1 | 115
Cc1nc(Nc2ncc(C(=O)Nc3c(C)cccc3Cl)s2)cc(N2CCN(CCO)CC2)n1 [dasatanib] + CC1(C)NC(=O)N(c2ccc([N+](=O)[O-])c(C(F)(F)F)c2)C1=O [nilutamide] (first compound 0.02 µM, partner dose 5 µM) | 71.1 | 105 | 54.3 | 71.1 | 17.1 | 71.2 | 65.9 | 85.6 | 54.6 | 88.1
CN(C)S(=O)(=O)c1ccc2c(c1)/C(=C/c1cc3c([nH]1)CCCC3)C(=O)N2 + O=S(=O)(c1ccccc1)N(CC(F)(F)F)c1ccc(C(O)(C(F)(F)F)C(F)(F)F)cc1 [T0901317] (first compound 2 µM, partner dose 7 µM) | 49.5 | 51.6 | 79.6 | 78 | 112 | 80.3 | 73.7 | 68.2 | 46.4 | 70.8
C=CCn1c(=O)c2cnc(Nc3ccc(N4CCN(C)CC4)cc3)nc2n1-c1cccc(C(C)(C)O)n1 + COc1cc2c(Oc3ccc4[nH]c(C)cc4c3F)ncnc2cc1OCCCN1CCCC1 [cediranib] (first compound 0.1 µM, partner dose 2 µM) | 75.3 | 71 | 95.1 | 55.5 | 59.9 | 73.8 | 93.7 | 59 | 45 | 70.7
CO[C@@H]1[C@H](N(C)C(=O)c2ccccc2)C[C@H]2O[C@]1(C)n1c3ccccc3c3c4c(c5c6ccccc6n2c5c31)C(=O)NC4 [Midostaurin] + CCCCCCCCCCCC1=C(O)C(=O)C=C(O)C1=O [Embelin] (first compound 0.4 µM, partner dose 6 µM) | 48.3 | 64.2 | 65 | 64.7 | 78.3 | 64.4 | 56.7 | 51.5 | 52.3 | 73.4
CO[C@@H]1[C@H](N(C)C(=O)c2ccccc2)C[C@H]2O[C@]1(C)n1c3ccccc3c3c4c(c5c6ccccc6n2c5c31)C(=O)NC4 [Midostaurin] + O=C(O)C(=O)Nc1sc2c(c1C(=O)O)CCNC2 [TCS401] (first compound 0.4 µM, partner dose 8.33333 µM) | 79.1 | 85.7 | 89.5 | 106 | 82.3 | 80.1 | 81.8 | 76.3 | 54.7 | 67.4
NCC(=O)Nc1ccc(-n2nc(C(F)(F)F)cc2-c2ccc3c(ccc4ccccc43)c2)cc1 + CCc1ccc(CCOc2ccc(CC3SC(=O)NC3=O)cc2)nc1 [pioglitazone] (first compound 5 µM, partner dose 10 µM) | 74.4 | 50.3 | 79.1 | 123 | 95.5 | 70.1 | 38.2 | 111 | 111 | 70.4
C=CCn1c(=O)c2cnc(Nc3ccc(N4CCN(C)CC4)cc3)nc2n1-c1cccc(C(C)(C)O)n1 + c1cc(-c2cnn3cc(-c4ccc(OCCN5CCCCC5)cc4)cnc23)ccn1 [Dorsomorphin] (first compound 0.1 µM, partner dose 2 µM) | 58.6 | 75 | 93.8 | 58.6 | 74.5 | 81.4 | 69.2 | 63 | 51.7 | 107
CO[C@@H]1[C@H](N(C)C(=O)c2ccccc2)C[C@H]2O[C@]1(C)n1c3ccccc3c3c4c(c5c6ccccc6n2c5c31)C(=O)NC4 [Midostaurin] + NCC(=O)Nc1ccc(-n2nc(C(F)(F)F)cc2-c2ccc3c(ccc4ccccc43)c2)cc1 [OSU03012] (first compound 0.4 µM, partner dose 5 µM) | 32 | 40.9 | 49.8 | 49.3 | 46.3 | 59.8 | 45.6 | 66.8 | 28.3 | 334
CO[C@@H]1[C@H](N(C)C(=O)c2ccccc2)C[C@H]2O[C@]1(C)n1c3ccccc3c3c4c(c5c6ccccc6n2c5c31)C(=O)NC4 [Midostaurin] + COC(=O)c1sccc1S(=O)(=O)Nc1ccc(Nc2ccccc2)cc1OC [GSK0660] (first compound 0.4 µM, partner dose 5 µM) | 44 | 47.5 | 67.5 | 55.1 | 67.8 | 70 | 34.8 | 69.2 | 27.2 | 60
C[C@]1(c2nc3c(C(N)=O)cccc3[nH]2)CCCN1 [Veliparib] + COc1ccc(COc2ccc(Cc3cnc(N)nc3N)cc2OC)cc1 [GW2580] (first compound 7 µM, partner dose 5 µM) | 76.2 | 91.8 | 97.1 | 84.2 | 72.6 | 89.2 | 95.1 | 103 | 32.2 | 83.8
NC(=O)Nc1cc(-c2cccc(F)c2)sc1C(=O)N[C@H]1CCCNC1 + COc1ccc2c(c1)CCC1C2CCC2(C)C(NCCCCCCN3C(=O)C=CC3=O)CCC12 [U73122] (first compound 0.1 µM, partner dose 2 µM) | 90 | 104 | 105 | 113 | 96.5 | 94.5 | 104 | 34.3 | 47.7 | 80.1
NCC(=O)Nc1ccc(-n2nc(C(F)(F)F)cc2-c2ccc3c(ccc4ccccc43)c2)cc1 + c1cc(-c2cnn3cc(-c4ccc(OCCN5CCCCC5)cc4)cnc23)ccn1 [Dorsomorphin] (first compound 5 µM, partner dose 2 µM) | 35.2 | 46.4 | 78.4 | 67.8 | 88 | 72.5 | 74.1 | 61.3 | 62.2 | 82.8
CO[C@@H]1[C@H](N(C)C(=O)c2ccccc2)C[C@H]2O[C@]1(C)n1c3ccccc3c3c4c(c5c6ccccc6n2c5c31)C(=O)NC4 [Midostaurin] + N#Cc1c(O)c2c(-c3ccc(-c4ccccc4O)cc3)csc2[nH]c1=O [A769662] (first compound 0.4 µM, partner dose 10 µM) | 66.4 | 73.2 | 83.1 | 72.2 | 84.6 | 78.4 | 63 | 57.3 | 46.9 | 70.3
Cc1nc(Nc2ncc(C(=O)Nc3c(C)cccc3Cl)s2)cc(N2CCN(CCO)CC2)n1 [dasatanib] + CN(NC(=O)CC(=O)NN(C)C(=S)c1ccccc1)C(=S)c1ccccc1 [STA4783] (first compound 0.02 µM, partner dose 0.03 µM) | 35.1 | 63.8 | 17 | 17.2 | 12.6 | 65.7 | 58.5 | 14.2 | 28.2 | 34.8
C=CCn1c(=O)c2cnc(Nc3ccc(N4CCN(C)CC4)cc3)nc2n1-c1cccc(C(C)(C)O)n1 + Cn1cc(/C=C2\C(=O)Nc3cccnc32)c2ccccc21 [GW441756] (first compound 0.1 µM, partner dose 2 µM) | 88.3 | 62.8 | 97.3 | 72.3 | 78.3 | 96.1 | 75.9 | 64.8 | 76.3 | 81.8
C[C@]1(c2nc3c(C(N)=O)cccc3[nH]2)CCCN1 [Veliparib] + O=S(=O)(c1ccccc1)N(CC(F)(F)F)c1ccc(C(O)(C(F)(F)F)C(F)(F)F)cc1 [T0901317] (first compound 7 µM, partner dose 7 µM) | 69.5 | 82.3 | 97.4 | 93.8 | 101 | 84.2 | 77.8 | 70.7 | 81.1 | 62.3
Cc1nc(Nc2ncc(C(=O)Nc3c(C)cccc3Cl)s2)cc(N2CCN(CCO)CC2)n1 [dasatanib] + Cc1cc(N2CCOCC2)cc2[nH]c(-c3c(NC[C@@H](O)c4cccc(Cl)c4)cc[nH]c3=O)nc12 [BMS536924] (first compound 0.02 µM, partner dose 1 µM) | 54 | 69.9 | 50.6 | 46.9 | 13.3 | 76.8 | 59.7 | 63.7 | 24.6 | 61
